Test results taken from the supplement of paper PMC4723716.
± gives the uncertainty stated by the source. Whole data set: some 9,900 compounds, median “viability index relative to DMSO control” near 1, cut for the lowest 2% near 0.85. This is one part of the list.

System: Plasmodium falciparum NF54 stage V gametocytes
Assay: viability index relative to DMSO control (fraction); higher = less gametocyte killing
Settings: 2.5 µM, incubation time: 72 h
Outline: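 Viability index is the count of red-stained particles in a well divided by the plate mean of solvent-only wells. Particles of 20–70 µm2 were counted in one imaged field per well after one to two hours with 3 µl of 2.5 µM MitoTracker Red CMXRos and 0.13% saponin. Before staining, P. falciparum NF54 stage V gametocytes in serum-free medium (0.75% gametocytemia, 1.25% hematocrit, 10 µl, 1,536-well plates) were kept with compound at 2.5 µM for 72 hr at 37°C under low oxygen.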

[1] = library set: Broad Institute DOS

Row | Compound | viability index [1] | viability index (library set: Broad Institute Blood Stage)
1 | C[C@@H](NC(=O)C[C@H]1C=C[C@@H](NS(=O)(=O)c2cccc(F)c2)[C@H](CO)O1)c1ccccc1 | 1.17 ± 0.04 | 
2 | CO[C@H](CN(C)Cc1nccs1)[C@@H](C)CN([C@H](C)CO)S(=O)(=O)c1ccc(F)cc1 | 0.9942 ± 0.0032 | 
3 | O=C(C[C@@H]1CC[C@H]2[C@@H](COC[C@@H](O)CN2S(=O)(=O)c2cccc(F)c2)O1)NCc1ccncn1 | 1.09 ± 0.029 | 
4 | O=C(C[C@@H]1CC[C@@H]2[C@H](COC[C@@H](O)CN2Cc2ccc(Oc3ccccc3)cc2)O1)N1CCN(c2ccccc2)CC1 | 1.03 ± 0.058 | 
5 | Cc1ccccc1S(=O)(=O)N1C[C@@H](O)COC[C@H]2O[C@@H](CC(=O)N3CCCCC3)CC[C@@H]21 | 0.936 ± 0.075 | 
6 | O=C(c1cccc(F)c1)N1CCCCN2[C@@H](CO)[C@@H](c3ccc(C#CC4(O)CCCC4)cc3)[C@@H]2C1 | 1.04 ± 0.095 | 
7 | CCCNC(=O)N1C[C@]2(CCN(CC2)S(=O)(=O)CC)c2c([nH]c3cc(OC)ccc23)[C@@H]1CO | 1 ± 0.059 | 
8 | CC(C)CC#Cc1ccc([C@H]2[C@@H](CO)N3C(=O)CN(C(=O)c4ccccn4)C[C@H]23)cc1 | 1.061 ± 0.0031 | 
9 | CN(C)C(=O)C[C@@H]1CC[C@@H]2[C@H](COC[C@@H](O)CN2C(=O)C2CCOCC2)O1 | 1.16 ± 0.017 | 
10 | COc1ccc(C#Cc2ccc3c(c2)[C@@H]2[C@@H](CCN2C(=O)c2cnccn2)[C@@H](CO)N3)cc1 | 1.02 ± 0.043 | 
11 | COc1ccc(NC(=O)N2C[C@H](O)COC[C@@H]3O[C@@H](CC(=O)N4CCCCC4)CC[C@H]32)cc1 | 1.05 ± 0.061 | 
12 | CN(C)c1ccc2c(c1)[C@@H]1C[C@@H](CC(=O)NCc3ccccn3)O[C@H](CO)[C@@H]1O2 | 1.12 ± 0.03 | 
13 | CCCNC(=O)N(C)C[C@H]1Oc2ncc(C#CC3CCCCC3)cc2C(=O)N([C@@H](C)CO)C[C@H]1C | 0.9399 ± 0.0019 | 
14 | CCN1[C@@H]2c3ccc(C4=CCCC4)c(=O)n3C[C@@H]2[C@@H](CO)[C@@H]1C(=O)NC1Cc2ccccc2C1 | 1.06 ± 0.018 | 
15 | O=C(C1CCOCC1)N1C[C@H]2[C@@H](c3ccccc31)[C@@H](CO)N2C(=O)Cc1ccccn1 | 0.994 ± 0.19 | 
16 | CCS(=O)(=O)Nc1ccc2c(c1)C(=O)N(C)C[C@H](OC)[C@@H](C)CN(CC1CCCCC1)[C@H](C)CO2 | 0.997 ± 0.048 | 
17 | COCC(=O)N1C[C@H](C)[C@@H](OC)CN(C)C(=O)c2ccc(NC(=O)Nc3cccc(F)c3)cc2OC[C@H]1C | 0.972 ± 0.042 | 
18 | C/C=C/c1ccccc1[C@H]1[C@@H](C#N)N(c2ncc(CC)s2)[C@@H]1CO | 1.08 ± 0.038 | 
19 | Cc1ccc(-c2ccc([C@@H]3[C@H](CO)N4C(=O)CN(C(=O)NC(C)C)C[C@@H]34)cc2)cc1 | 1.03 ± 0.011 | 
20 | COc1cccc(CNC(=O)C[C@H]2CC[C@H]3[C@@H](COc4ccc(NC(=O)c5cccs5)cc4C(=O)N3C)O2)c1 | 1.05 ± 0.11 | 
21 | CCCN(C)C[C@@H]1Oc2ncc(-c3cccc(OC)c3)cc2C(=O)N([C@H](C)CO)C[C@@H]1C | 0.691 ± 0.3 | 
22 | CC(C)COC(=O)N(C)C[C@H]1OCc2ccccc2-c2ccccc2C(=O)N([C@H](C)CO)C[C@@H]1C | 0.995 ± 0.013 | 
23 | O=C(NC[C@@H]1[C@H](c2ccccc2)[C@@H](CO)N1C(=O)Cc1ccncc1)C1CCC1 | 1.04 ± 0.055 | 

Row | Compound | viability index [1] | viability index (library set: Broad Institute Blood Stage)
24 | O=C(Nc1cc(F)ccc1F)N[C@@H]1CC[C@@H](CC(=O)N2CCc3ccccc3C2)O[C@@H]1CO | 0.97 ± 0.077 | 
25 | COc1cccc(CN2[C@@H]3CNC[C@H]2[C@H]3c2ccc(/C=C/c3ccccc3)cc2)c1 | 0.998 ± 0.049 | 
26 | C[C@@H]1CCCCO[C@H](CN(C)Cc2ccncc2)[C@@H](C)CN([C@H](C)CO)C(=O)c2cc(NS(=O)(=O)c3ccc(Cl)cc3)ccc2O1 | 0.996 ± 0.012 | 
27 | O=C(C[C@H]1C=C[C@@H](NC(=O)Nc2cccc(F)c2)[C@@H](CO)O1)NCC1CCCCC1 | 0.934 ± 0.15 | 
28 | CO[C@@H]1CN(C)C(=O)c2ccc(NS(C)(=O)=O)cc2OC[C@@H](C)N(C(=O)CN(C)C)C[C@@H]1C | 0.987 ± 0.014 | 
29 | COc1ccccc1S(=O)(=O)N1[C@@H]2CNC[C@H]1[C@@H]2c1ccc(-c2ccncc2)cc1 | 1.06 ± 0.032 | 
30 | COc1ccccc1-c1ccc([C@@H]2[C@@H](CO)N3CCCCN(C(=O)c4cccnc4)C[C@@H]23)cc1 | 0.998 ± 0.031 | 
31 | O=S(=O)(c1cccs1)N1CCCCN2[C@H](C1)[C@@H](c1ccc(/C=C/c3ccccc3)cc1)[C@@H]2CO | 1.008 ± 0.0086 | 
32 | O=C1CN(S(=O)(=O)c2cccc(F)c2)C[C@H]2[C@@H](c3ccc(C4=CCCC4)cc3)[C@H](CO)N12 | 1.03 ± 0.027 | 
33 | O=C(C[C@H]1CC[C@@H]2NC[C@@H](O)COC[C@H]2O1)NC1Cc2ccccc2C1 | 1.04 ± 0.07 | 
34 | Cc1ccc(-c2ccc([C@@H]3[C@@H]4CN(Cc5ccccc5F)C[C@H]3N4)cc2)cc1 | 0.929 ± 0.04 | 
35 | N#C[C@@H]1N[C@@H](CO)[C@H]1c1ccc(-c2cccc(F)c2)cc1 | 1.15 ± 0.052 | 
36 | CN1C(=O)c2cc(NC(=O)c3ccc(C#N)cc3)ccc2OC[C@H]2O[C@@H](CC(=O)NC3Cc4ccccc4C3)CC[C@@H]21 | 0.993 ± 0.13 | 
37 | Cc1ccc(S(=O)(=O)N[C@H]2CC[C@H](CC(=O)NCc3ccncn3)O[C@H]2CO)cc1 | 0.994 ± 0.04 | 
38 | COc1ccccc1C#Cc1ccc2c(c1)[C@@H]1[C@@H](CCN1C(=O)c1ccncc1)[C@@H](CO)N2 | 1.02 ± 0.093 | 
39 | O=C(NCC[C@@H]1CC[C@H](NC(=O)C2CCOCC2)[C@H](CO)O1)c1cc(Cl)cc(Cl)c1 | 1.01 ± 0.1 | 
40 | COc1ccc(CN2C[C@]3(CN(C3)C(C)=O)c3c([C@@H]2CO)n(C)c2cc(OC)ccc32)cc1 | 0.965 ± 0.028 | 
41 | COCC#Cc1ccc([C@@H]2[C@@H](C#N)N(C(=O)Cc3ccccc3)[C@@H]2CO)cc1 | 1.03 ± 0.021 | 
42 | C[C@@H]1CN([C@@H](C)CO)S(=O)(=O)c2ccc(-c3ccncc3)cc2O[C@@H]1CN(C)S(C)(=O)=O | 1.01 ± 0.067 | 
43 | O=C(CN1CCOCC1)N1CCCCN2[C@H](CO)[C@H](c3ccc(Br)cc3)[C@@H]2C1 | 0.945 ± 0.057 | 
44 | C[C@H](CO)N1C[C@H](C)[C@H](CN(C)S(=O)(=O)c2ccc(C(F)(F)F)cc2)OCc2ccccc2-c2c(n(C)c3ccccc23)C1=O |  | 0.693 ± 0.051
45 | CO[C@H]1CN(C)C(=O)c2cc(NC(=O)Nc3c(C)noc3C)ccc2OC[C@H](C)NC[C@H]1C | 0.997 ± 0.014 | 
46 | CC(C)NC(=O)Nc1ccc2c(c1)C(=O)N([C@H](C)CO)C[C@H](C)[C@@H](CN(C)C(=O)C1CCCCC1)OCCCC[C@H](C)O2 | 1.19 ± 0.011 | 
